From PubChem BioAssay AID1963576 (National Center for Advancing Translational Sciences (NCATS), 2024)
About 60 (0.1%) of roughly 46,000 compounds were called active. Another 3% or so got no clear call; they are omitted. The call rests on the fitted dose curve; in most records, active means well fitted inhibition curve with a large enough effect; inconclusive means small, poorly fitted or top-dose-only effect; inactive means no such curve, though single readings can be large or run the other way. The list shows a part of the results.

Test: Primary qHTS assay for Inhibitors of ovarian cancer metastasis using an organotypic tumor microenvironment (TME) model. Further: nearly all actives have a fitted effect of over 65% in size.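 On activity change, negative = inhibition: plate controls were DMSO wells for no effect and tomatine positive control wells for full effect.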
Settings: SKOV3ip1-GFP adhesion/invasion on 3D omental model, fluorescence; series mostly up to 45.8 µM; activity change, negative = inhibition: at the top concentration
Summary of the method: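 qHTS, 4-pt dose (0.36-46 umol/L); SKOV3ip1-GFP, 1,200 cells/well, no FBS; primary omental fibroblast/mesothelial co-culture 48 h pre-grown; 2 h RT + 16 h 37 C; PBS wash, 4% PFA; GFP count 488/509 nm.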

outcome, inactive:
Cc1ccc(Cl)cc1N1CCN(C(=O)c2sc3nc4n(c(=O)c3c2C)CCC4)CC1, Cc1ccc(CSc2nc3ccc(NC(=O)CC(C)C)cc3s2)cc1, Cc1ccc(NC(=O)CSc2nncn2C)c(C)c1, O=C(Nc1cc(F)ccc1F)C1CCN(C(=O)c2cnn(-c3ccccc3)c2-n2cccc2)CC1, CCOC(=O)c1cc(NC(=O)c2ccccc2)c(=O)n2c1oc1ccc(Cl)cc12, COc1ccc(Cl)c2sc(NC(=O)c3ccc(S(=O)(=O)N4CCCC4)cc3)nc12, COc1ccccc1Cn1c(C2CC(=O)N(c3ccccc3OC)C2)nc2ccccc21 (stereo not given), COc1cccc(NC(=O)c2cnc(SCC(=O)N3CCCc4ccccc43)n(C)c2=O)c1, CC(C)CCNC(=O)CCCn1c(=O)c2cccn2c2ccccc21, COc1ccccc1NC(=O)CSc1nnc2c(n1)[nH]c1ccccc12, Cc1ccc(C)c(CN2CCCN(Cc3ccccc3C)S2(=O)=O)c1, COc1ccc(-c2nc(SCC(=O)NC3CCCC3)c(-c3ccc(F)cc3)[nH]2)cc1OC, O=C(Nc1ccc2oc(-c3cccnc3)nc2c1)c1ccccc1F, O=C(Nc1cccc(Br)c1)c1cc(S(=O)(=O)N2CCCCC2)c[nH]1, Cc1cccc(C(=O)N2CCc3cc(CNC(=O)c4ccco4)ccc32)c1, CCOC(=O)c1c(NC(=O)c2ccc(S(=O)(=O)N3CCCC(C)C3)cc2)sc2c1CC(C)(C)NC2(C)C (stereo not given), CCOCCCN1C(=O)CN(C2CCCCCC2)C(=O)C1c1ccc(OCC)c(OC)c1 (stereo not given), COc1ccc(S(=O)(=O)NCCc2sc(-c3cccnc3)nc2C)cc1, CCCCN(C)S(=O)(=O)c1ccc(C(=O)Nc2sc3c(c2C(=O)OCC)CCN(C(C)C)C3)cc1, CCOC(=O)c1c(NC(=O)Nc2ccc(F)cc2)sc(C(=O)N(C)C)c1C, Cc1ccccc1Cn1nnc2sc3c(c2c1=O)CCCC3, COc1ccc(C(=O)NCCc2csc(-c3ccc(Cl)cc3)n2)cc1

Activity change, negative = inhibition, inactive:
CCOC(=O)c1noc2ncn(Cc3ccc([N+](=O)[O-])cc3)c(=O)c12 -16%, COc1ccc(C(=O)NCC(c2ccc(N(C)C)cc2)N2CCOCC2)cc1 (stereo not given) 7.42%, CSc1ccc(CCNC(=O)c2c(C)nn(-c3ccc(F)cc3)c2-n2cccc2)cc1 5.68%, O=C(NCc1ccc(Cl)cc1)C1CCN(S(=O)(=O)c2ccc(F)cc2)CC1 0.72%, Cc1ccccc1C(=O)Nc1sc2c(c1C(=O)N1CCCCC1)CCC(C(C)(C)C)C2 (stereo not given) -8.41%, CCC(CC)C(=O)Nc1ccc2nc(SCC(=O)N3CCOCC3)sc2c1 -1.25%, COc1ccc(S(=O)(=O)c2cn(C)c3cc(N4CCCCCC4)c(F)cc3c2=O)cc1 2.89%, COc1ccc(-c2noc(-c3nnn(-c4ccc(C)cc4C)c3C)n2)cc1 10.9%, COc1ccc(NC(=O)CSC2=Nc3ccccc3C3=NC(CCC(=O)NC4CCCCC4)C(=O)N23)cc1Cl (stereo not given) 7.81%, Cc1ccc(-n2nc(CO)c(C(=O)NCc3cccnc3)n2)cc1C -3.85%, CCOc1ccccc1CNS(=O)(=O)c1ccc(-c2cnc(C3CC3)o2)cc1 -7.38%, COc1ccc(OC)c(C2CC(=O)Nc3c2c(=O)n(C)c2ncnn32)c1 (stereo not given) 6.84%, COc1ccccc1NC(=O)CSCc1cc(=O)c2cccc(Cl)c2[nH]1 2.11%, CCOC(=O)c1c(-c2ccccc2)oc2ccc(NS(=O)(=O)c3ccc(C)cc3)cc12 2.82%, CCc1ccc2occ(CC(=O)Nc3c(C(=O)c4ccccc4)oc4ccccc34)c2c1 3.95%, O=C(CSC1=Nc2ccccc2C2=NC(Cc3ccccc3)C(=O)N12)Nc1cccc(Cl)c1 (stereo not given) 1.02%, Cc1ccc(CNC(=O)c2cc3sc(Cl)cc3n2C)cc1 5.32%, Cc1ccnc(NC(c2cccc(O)c2)c2ccc3ccc(C)nc3c2O)c1 (stereo not given) -2.66%, COc1ccccc1N1CCN(S(=O)(=O)c2cc(C(=O)Nc3ccc(Oc4ccccc4)cc3)ccc2F)CC1 13.1%, Cc1cccc(CS(=O)(=O)Cc2ccc(C(=O)NCc3ccc(F)cc3)o2)c1 14.9%, O=C(Cn1c(=O)n(-c2ccccc2)c(=O)c2c3c(sc21)CCC3)c1ccc(Br)cc1 6.14%, Cc1ccc2nc(-c3ccc(Cl)c(NC(=O)COc4ccc([N+](=O)[O-])cc4)c3)oc2c1 -0.683%, CCOC(=O)c1c(C)oc2ccc(N(C(=O)c3ccncc3)S(=O)(=O)c3ccc(F)cc3C)cc12 8.7%, Cc1noc(-c2ccc(-c3noc(-c4ccc(Cl)cc4)n3)cc2)n1 8.15%, CCN(C(=O)c1cc2c(=O)oc3ccccc3c2s1)c1ccccc1F 16.7%, CCOC(=O)c1ccc(Nc2c(-c3ccc(N(C)C)cc3)nc3nc[nH]n23)cc1 1.55%, O=C(CN1C(=O)CCc2cc(Br)ccc21)Nc1ccc(OC(F)(F)F)cc1 -3.94%, Cc1cc(C)cc(NC(=O)CN2C(=O)c3ccccc3Sc3ccc(C(=O)N4CCCC4)cc32)c1 2.62%, COc1ccc(Cn2c(=O)n(-c3ccc(C)cc3)c(=O)c3c2c2cc(C)ccc2n3C)cc1 11.8%, COc1ccc(NC(=O)c2cnc3cc(C)ccn3c2=O)c(OC)c1 -3.02%, COc1cccc(CNC(=O)c2nn(C)c3c2CSc2ccccc2-3)c1 -9.24%, COc1ccccc1Cc1nc2ccccc2nc1SCC(=O)NCc1ccc(C)cc1 -15.7%, COc1ccc(C)cc1NC(=O)Cn1nc(N2CCN(c3ccccc3OC)CC2)ccc1=O 0.821%, O=C(COCc1cc(-c2ccco2)on1)Nc1cc(Cl)ccc1O -7.98%, Cc1noc(C)c1S(=O)(=O)N(CC(=O)NCc1ccccc1)c1ccc(C(C)C)cc1 0.79%, COc1ccccc1CNC(=O)C(=O)NCC(c1cccnc1)N1CCN(c2ccccc2)CC1 (stereo not given) -2.18%, CC1CCN(C(c2ccc(F)cc2)c2sc3nc(-c4ccco4)nn3c2O)CC1 (stereo not given) -0.286%, COc1ccc(CC(=O)N2CCc3c([nH]c4ccccc34)C2c2ccc(SC)cc2)cc1 (stereo not given) 2.75%, COCCNC(=O)CCn1nc(-c2ccc(Cl)cc2)c2ccccc2c1=O 10.5%, CC(=O)N1CCCc2cc(S(=O)(=O)Nc3ccc(Cl)cc3F)ccc21 1.38%, CCc1ccc(-n2c(N3CCN(c4ccc(F)cc4)CC3)nc3ccccc3c2=O)cc1 0.0461%, COc1ccc(NC(=O)C(NC(=O)/C=C\c2ccc3c(c2)OCO3)c2ccc(C)cc2)cc1 (stereo not given) 5.92%, O=C(c1ccc2c(c1)N(Cc1ccccc1)C(=O)c1ccccc1S2(=O)=O)N1CCOCC1 -9.47%, COc1ccc(C(=O)N2CCN(C(=O)COc3ccccc3)CC2)cc1OC 3.49%, COc1ccc(-c2nc3ccccc3s2)cc1NC(=O)c1cc(OC)c(OC)c(OC)c1 2.58%, Cc1cc(S(=O)(=O)Nc2cc3c(cc2N2CCOCC2)n(C)c(=O)c(=O)n3C)ccc1F -3.53%, COc1ccc(-c2nc3n(n2)C(c2ccc(O)cc2)C(C(=O)Nc2cccnc2)=C(C)N3)cc1OC (stereo not given) 7.07%, Cc1csc2nc(COc3ccc(NC(=O)c4ccccc4F)cc3)cc(=O)n12 -0.875%, COc1ccc(C(=O)Nc2nc(-c3ccc(Br)cc3)ns2)cc1 -4.02%, Cc1nn(Cc2ccccc2Cl)c(C)c1CN(C)CC(O)COc1ccc(Cl)cc1 (stereo not given) 9.37%, CCCn1c2ccccc2c2cnn(CC(=O)NCC3CCN(Cc4ccccc4C)CC3)c(=O)c21 -16.7%, COc1ccccc1CNc1nccn(-c2ccc(F)cc2)c1=O 0.611%, COC(=O)CN1C(=O)C(O)(c2c(C)[nH]c3ccccc23)c2ccccc21 (stereo not given) 2.66%, CCOc1ccc(CCNC(=O)NCc2noc3ccc(C)cc23)cc1 -4.04%, CCCNC(=O)c1ccc(Cn2c(SCC(=O)NC(C)C)nc3ccccc3c2=O)cc1 -11.1%, CCOCCc1nn2c(=O)cc(COC(=O)c3ccc(NC(=O)c4cccs4)cc3)nc2s1 -6.58%, Cc1ccc(C(=O)c2oc3ccccc3c2NC(=O)c2cc(-c3ccccc3)on2)cc1 -1.19%, Cc1ccc(-n2ncc3c(Nc4ccc5c(c4)OCCO5)ncnc32)cc1Cl -7.29%, O=C(NC1CC(=O)N(c2ccc(F)cc2)C1)c1ccc(S(=O)(=O)N2CCOCC2)cc1 (stereo not given) -4.37%, Cn1c(=O)c2c(-c3ccccc3)n3c(c2n(C)c1=O)C(c1ccc([N+](=O)[O-])cc1)Nc1ccccc1-3 (stereo not given) -3.76%, COc1ccc(NC(=O)Cn2c(=O)c3cccn3c3ccccc32)cc1 13.3%, Cc1ccc(C(C)C)c(OCC(=O)Nc2ccc3c(c2)nc(CCNC(=O)c2ccco2)n3C)c1 -0.645%, O=C(O)CCC(=O)N1CCc2cc(S(=O)(=O)NCc3ccc(F)cc3)ccc21 1.57%, COc1ccc(NC(=O)c2cccc3c(=O)c4c([nH]c23)CCCC4)cc1 20.7%, CCOC(=O)c1[nH]c(C)c(CCC(=O)N2CCN(c3ccc(OC)cc3)CC2)c1C -0.41%, CCOC(=O)C1CCN(C(=O)C2CCN(S(=O)(=O)c3c(C)noc3/C=C/c3ccc(C)cc3)CC2)CC1 14.4%, CCSc1nc(-c2ccccc2)nc2c1Cc1c(CO)cnc(C)c1O2 -9.83%, COc1ccc(CCNC(=O)c2ccc3c(c2)N(Cc2ccccc2Cl)C(=O)c2ccccc2S3)cc1OC -8.34%, CCOC(=O)c1cc2c(=O)n3ccccc3nc2n(CC2CCCO2)c1=NC(=O)c1cccc(C)c1 (stereo not given) -12.1%, O=C(COc1ccccc1F)Nc1nnc(SCc2cc(=O)n3ccccc3n2)s1 -27.2%, Cc1ccc(CN2c3ccccc3-c3nc(SCC(=O)NCc4ccccc4)ncc3S2(=O)=O)cc1 -1.97%, O=C(CS(=O)(=O)c1cccc2nsnc12)NCc1ccccc1Cl 32.1%, COc1ccc(-c2cccc(NS(=O)(=O)c3cc(C(F)(F)F)ccc3Cl)c2)nn1 -1.11%
